Data: paper PMC6919601, “Identification of Plasmodium dipeptidyl aminopeptidase allosteric inhibitors by high throughput screening” (PLoS ONE, 2019)
Where “and” joins values, the source holds several entries; their conditions need not be identical. Equal values may be shown once. Out of some 110,000 compounds screened, about 230 (0.21%) showed an effect of 50% or more. The list shows a part of the results.

Molecular target: DPAP1 (Plasmodium falciparum, UniProt Q8IIJ9)
Assay: primary screen, percent inhibition; read by cleavage of a fluorogenic dipeptide substrate; higher = more effect of the substance
Parameters: species or system P. falciparum D10 trophozoite lysates; single well
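Also: 30 min substrate incubation versus DMSO and 10 µM JCP410 controls.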

Sequence of DPAP1 (Q8IIJ9 whole entry, looked up): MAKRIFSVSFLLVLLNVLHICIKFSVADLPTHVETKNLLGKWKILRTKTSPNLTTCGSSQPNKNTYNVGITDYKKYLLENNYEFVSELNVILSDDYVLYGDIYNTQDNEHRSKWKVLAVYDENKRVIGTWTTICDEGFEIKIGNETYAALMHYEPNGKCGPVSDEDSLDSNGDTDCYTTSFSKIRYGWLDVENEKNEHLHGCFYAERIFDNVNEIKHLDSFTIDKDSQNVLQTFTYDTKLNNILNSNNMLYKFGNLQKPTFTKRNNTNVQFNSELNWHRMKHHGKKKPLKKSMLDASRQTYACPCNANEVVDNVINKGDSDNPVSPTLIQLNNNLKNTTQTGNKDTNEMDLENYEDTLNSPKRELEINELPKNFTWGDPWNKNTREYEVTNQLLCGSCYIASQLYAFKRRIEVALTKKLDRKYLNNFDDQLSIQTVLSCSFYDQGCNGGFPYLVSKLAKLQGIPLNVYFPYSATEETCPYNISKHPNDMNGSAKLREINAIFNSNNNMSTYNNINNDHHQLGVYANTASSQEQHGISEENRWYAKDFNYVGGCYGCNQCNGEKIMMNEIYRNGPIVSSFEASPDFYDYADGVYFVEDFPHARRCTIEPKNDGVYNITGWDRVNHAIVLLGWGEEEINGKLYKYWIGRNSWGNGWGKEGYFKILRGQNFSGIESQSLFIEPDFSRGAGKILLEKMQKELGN

| SMILES | % Inhibition @ 10 uM |
| --- | --- |
| CCn1c(=S)[nH]c2sc3c(c2c1=O)CC(C)(C)OC3 | 1.4% |
| CC1CN(C(=O)c2ccc(NS(=O)(=O)c3cccc(Cl)c3)cc2)CC(C)O1 (centres unmarked) | -1.51% |
| O=C(CSCc1ccc(Cl)cc1)NCCSc1ccccn1 | 2.7% |
| CC1(C)Cc2nc3[nH]c(=S)[nH]c(=O)c3cc2CO1 | 5.73% |
| CCC(C)Nc1nc(OC)nc(Oc2ccc(O)nn2)n1 (centres unmarked) | -6.79% |
| CC(=O)c1cc(F)c(N2CCN(C(=O)c3cc(F)c(F)cc3Cl)CC2)cc1C | -4.21% |
| COCCNC(=O)CCn1nc(-c2ccc(C)cc2)c2ccccc2c1=O | 0.351% |
| CC(=O)c1c2c(n3c1ccc1ccccc13)C(=O)c1ccccc1C2=O | 3.67% |
| COC(=O)c1cc(S(=O)(=O)NC2CCN(Cc3ccccc3)CC2)c[nH]1 | -3.76% |
| CCn1c(SCC(=O)NCc2ccc(C)cc2)nc2c(c1=O)SCC2 | 1.39% |
| C=CCn1c(SCC(=O)NCc2ccco2)nc2scc(-c3ccccc3)c2c1=O | -5.28% |
| NC1=NC(c2cccc(Br)c2)n2c(nc3ccccc32)N1 (centres unmarked) | 5.15% |
| COc1ccc(Br)cc1CNC(=O)Cn1ncn2cccc2c1=O | -4.26% |
| CCCCOc1ccc(CNCC2CCOC(C)(C)C2)cc1 (centres unmarked) | 3.46% and -2.74% |
| C=CCc1cc(/C=C2/SC(=O)NC2=O)cc(OCC)c1OCC | -5.82% |
| Cc1ccc2oc(-c3cccc(NC(=O)c4ccccc4F)c3)nc2c1 | 2.99% |
| COc1ccc(-c2nc(S)c3c(n2)Oc2c(O)cccc2C3)c(OC)c1 | -3.85% |
| CCOC(=O)N1CCN(Cc2ccc(F)cc2F)CC1 | -4.04% |
| Cc1cccc(NC2=NC(=O)/C(=C/c3ccc(OC(C)C(=O)O)cc3)S2)c1 (centres unmarked) | 8.31% |
| CCC(C(=O)NCc1ccc(F)cc1)n1ncn2c(cc3occc32)c1=O (centres unmarked) | 3% |
| CCOC(=O)c1cnn(CCOC(=O)c2ccccc2F)c1NC(=O)c1ccccc1F | 29.3% |

| SMILES | % Inhibition @ 10 uM |
| --- | --- |
| Cc1ccc(/N=C(/C(=N\c2ccc(C)cc2)N2CCOCC2)N2CCOCC2)cc1 | 2.68% |
| CC(=O)Nc1ccc(NC(=O)C23CC4CC(C2)CC(n2cnc(Br)n2)(C4)C3)cc1 | 2.44% |
| CC12CN3CC(C)(CN(C1)C3c1ccccc1Cl)C2 (centres unmarked) | -3.64% |
| Cc1ccc(N(C)C)cc1NC(=O)COc1ccc(Cl)cc1 | -5.65% |
| CN(C)c1cc(-c2ccccc2)nc(-c2ccccc2)n1 | -1.48% |
| CCCCOc1ccc(C2c3c(-c4ccccc4O)n[nH]c3C(=O)N2CCCOC)cc1 (centres unmarked) | 2.02% |
| FC(F)(F)c1ccc2c(c1)N(CCCN1CCN(C34CC5CC(CC(C5)C3)C4)CC1)c1ccccc1S2 | 5.37% |
| O=C(Nc1cc(Cl)ccc1Cl)c1ccccc1Br | 7.72% |
| Cc1cccc2c3c([nH]c12)C(=O)CC(C)(C)S3 | -1.51% |
| CCC1=C(c2ccc(C)cc2)S(=O)(=O)N=C1N1CCC(C(=O)NCC(C)c2ccccc2)CC1 (centres unmarked) | 1.63% |
| CN(Cc1ccccc1)C(=O)c1ccc(N(C)S(C)(=O)=O)cc1 | 0.964% |
| CC(=O)C(=CNc1cc(-c2ccccc2)nn1-c1ccccc1)C(C)=O | -2.8% |
| COc1ccc(-c2nnc3n(Cc4ccc(F)cc4)c(=O)c4ccccc4n23)c(OC)c1OC | -1.72% |
| COc1ccc(C(=O)NCC2(c3ccccc3)CCOCC2)c(OC)c1 | -1.68% |
| O=C(NCc1cccnc1)c1ccc(-n2nc(C(F)(F)F)c3c2CCCC3)cc1 | 8.95% |
| CCNc1nc(SCCOc2ccccc2)nc(N(C)C)n1 | -6.18% and -6.02% |
| COc1ccc(CCNC(=O)Cn2c(SCc3ccc(F)cc3)nc3ncccc32)cc1OC | 3.3% |
| COc1cc(C(=O)N2CCC3(CC2)N=C(c2ccc(Cl)cc2)C(=O)N3)cc(OC)c1OC | 8.11% |
| O=C(O)c1ccc(S(=O)(=O)NCC2CCCCC2)cc1 | -0.551% |
| CC1=NC(C)(C)Cc2cc(C)c(C)cc21 | 2.38% |
| O=C(Nc1cccc2cccnc12)c1ccccc1Cl | -0.425% |

| SMILES | % Inhibition @ 10 uM |
| --- | --- |
| Oc1ccccc1C1=NN2C(C1)c1ccccc1OC2c1cccc(F)c1 (centres unmarked) | -1.68% |
| COc1c2ccccc2c(OC)c2ccccc12 | 1.12% |
| CCOc1ccc(CCNC(=O)C(C)n2nc(C)c3c(C)n(-c4ccccc4)nc3c2=O)cc1 (centres unmarked) | -2.49% |
| COc1ccc(/C(=N\C(=S)Nc2ccc(C)cc2)NCS(=O)(=O)c2ccc(C)cc2)cc1 | -2.59% |
| O=C1c2cccc3cccc(c23)C(=O)N1C(c1ccccc1)c1ccccc1 | -0.143% |
| O=C(c1ccc(Br)o1)N1CCN(c2ccc3nnc(-c4ccccc4)n3n2)CC1 | -1.37% |
| Cn1nc(C(=O)NCc2cccc(Cl)c2)c2c1-c1ccccc1OC2 | -9.28% |
| CCO/C(O)=C1/C(C)=Nc2nc(SCC)nn2C1c1ccc(OC)cc1 (centres unmarked) | 6.07% |
| COc1cccc(OC)c1C(=O)Nc1nc(C)c(C(C)=O)s1 | 0.0265% |
| C[C@@H](C[C@H](NC(=O)OCc1ccccc1)C(=O)NCC#N)c1ccccc1OC(F)(F)F | 1.61% |
| CCOc1cccc2c1OC1(C)CC2/C(=C(\C)O)C(=O)N1 (centres unmarked) | 4.27% |
| Cc1ccc2c(c1)-c1onc(C(=O)Nc3nccs3)c1CO2 | 0.589% |
| CC(C)(C)/N=S1\OC(c2ccccc2)c2ccccc21 (centres unmarked) | 0.163% |
| O=C(O)c1ccc(CNCCc2ccc(Cl)cc2)s1 | -0.637% |
| COc1ccc(-c2nc(CS(=O)(=O)CC(=O)NCCCOC(C)C)c(C)o2)cc1 | -0.138% |
| O=S(=O)(c1ccc(Cl)nc1)N(c1ccccc1)c1ccccc1 | 1.59% |
| Cc1cccc2sc(NC(=O)CCNS(=O)(=O)c3cccc4nonc34)nc12 | 2.84% |
| CCOc1cccc(C2C3=C(O)CCCC3=NC(C)=C2C(=O)Nc2ccccc2OC)c1 (centres unmarked) | -1.64% |
| COc1ccc(C2=NS(=O)(=O)N(C)C(C(=O)Nc3ccn(Cc4ccc(C)cc4)n3)=C2)cc1 | 3.92% |
| COc1cccc(C2CC(=O)Nc3cc(C)c(C)cc32)c1 (centres unmarked) | -3.72% |
